According to a compilation of properties of binary mixtures (doi:10.1016/j.jct.2017.07.022):
The densities may have been worked out from excess volumes.

Experiment: xn = mol fraction of the nth substance listed
Details: 100 kPa

CC[n+]1ccccc1.N#C[N-]C#N + CC(C)O
mass density [kg/m3]
Details	x2 = 0	x2 = 0.1055	x2 = 0.1999	x2 = 0.2997	x2 = 0.4023	x2 = 0.499	x2 = 0.5998	x2 = 0.7006	x2 = 0.8007	x2 = 0.8997
288.15 K	1124.7	1106.7	1089.5	–	1047.4	1022.5	991.9	955.4	911.6	858.2
293.15 K	1121.6	–	1086.3	1067.3	1044.1	1019.2	988.5	951.9	908	854.4
298.15 K	1118.5	1100.4	1083.1	1064.1	–	1015.9	985.1	948.5	904.4	850.6
303.15 K	1115.3	1097.1	1079.9	1060.8	1037.6	1012.6	–	945	900.7	846.7
308.15 K	1112.2	1094	1076.7	1057.6	1034.3	1009.3	978.4	–	897.1	–
313.15 K	–	1090.8	1073.6	1054.4	1031.1	1006.1	–	–	–	839
318.15 K	1105.9	1087.7	1070.4	1051.2	1027.9	1002.8	–	–	889.8	835

CC[n+]1ccccc1.N#C[N-]C#N + CCCO
mass density [kg/m3]
Details	x2 = 0	x2 = 0.1095	x2 = 0.1947	x2 = 0.3011	x2 = 0.4029	x2 = 0.5008	x2 = 0.6003	x2 = 0.702	x2 = 0.8012	x2 = 0.9
288.15 K	1124.7	–	–	1073.1	1051.8	1028.8	1001	966.2	–	874
293.15 K	–	1104	1089.6	–	1048.5	1025.5	997.6	962.7	–	870.3
298.15 K	1118.5	1100.9	1086.4	1066.6	1045.2	–	994.1	959.3	917.8	–
303.15 K	1115.3	1097.7	1083.2	1063.4	–	1018.9	990.8	–	914.2	862.8
308.15 K	1112.2	1094.5	–	1060.2	1038.7	–	987.5	952.4	–	–
313.15 K	1109	1091.3	–	1056.9	1035.4	–	984.1	948.9	907	855.2
318.15 K	–	1088.2	1073.7	1053.8	1032.2	–	980.8	–	903.4	–

CC[n+]1ccccc1.N#C[N-]C#N + CCO
mass density [kg/m3]
Details	x2 = 0	x2 = 0.1008	x2 = 0.1974	x2 = 0.3008	x2 = 0.3994	x2 = 0.5058	x2 = 0.5994	x2 = 0.6996	x2 = 0.7999	x2 = 0.9011
288.15 K	–	–	1098.6	1083.4	1065.3	1042.1	1016.7	982.9	939.2	879.4
293.15 K	1121.6	–	1095.4	1080.2	1062.2	1038.9	1013.5	979.3	935.6	875.5
298.15 K	–	1105.6	–	–	1059.2	1035.8	1010.4	976	–	871.6
303.15 K	1115.3	1102.5	1089.1	1073.8	1055.8	1032.5	1006.9	972.4	928.2	–
308.15 K	1112.2	1099.3	1086	1070.6	1052.7	–	1003.8	969.1	924.6	863.8
313.15 K	1109	1096.1	1082.7	1067.6	–	–	–	–	920.9	859.8
318.15 K	1105.9	–	1079.7	1064.4	–	1023.2	997.6	962.8	917.3	855.9

CC(C)O + CC[n+]1ccccc1.N#C[N-]C#N
x1 = 1
Details	mass density [kg/m3]
288.15 K	789.4
293.15 K	785.3
298.15 K	781.1
303.15 K	776.8
308.15 K	772.5
313.15 K	768
318.15 K	763.5

CCCO + CC[n+]1ccccc1.N#C[N-]C#N
x1 = 1
Details	mass density [kg/m3]
293.15 K	803.6
298.15 K	799.6
303.15 K	795.6
308.15 K	791.5
313.15 K	787.4
318.15 K	783.2

CCO + CC[n+]1ccccc1.N#C[N-]C#N
x1 = 1
Details	mass density [kg/m3]
293.15 K	789.7
298.15 K	785.7
303.15 K	781.1
308.15 K	776.7
313.15 K	772.3
318.15 K	767.9
